Results: PubChem BioAssay (NCATS)
The inconclusive results got no clear call from the source; some entries with a clear call stand among them for comparison. For some assays here: A potency beside an inconclusive call is a rough fit, not a confirmed value. Active and inactive are the calls of the source. The call rests on the fitted dose curve; in most records, active means well fitted curve in the direction sought with a large enough effect; inconclusive means small, poorly fitted or top-dose-only effect, or another doubt; inactive means no such curve, though single readings can be large; an effect the other way counts as inactive or inconclusive.

Experiments:
[1] = Viability qHTS for spleen associated tyrosine kinase inhibitor (SYKi) naive MV4-11 cells (AID 1963823); conditions: MV4-11 AML viability, CellTiter-Glo luminescence, 72 h; series mostly up to 45 µM; further: nearly all actives have a fitted effect of over 40% in size
How it was run: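 In this viability screen, compounds acted on SYK inhibitor naive MV4-11 cells for three days (72 hr, 37 C). Remaining viable cells were measured by CellTiter-Glo luminescence following a 10 min room-temperature development.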

[2] = Viability qHTS for spleen associated tyrosine kinase inhibitor (SYKi) drug resistant MV4-11 cells (AID 1963824); further: nearly all actives have a fitted effect of over 35% in size
How it was run: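 CellTiter-Glo luminescence, read 10 min after reagent addition, reports viability after a 72 hr compound exposure. Cells are an MV4-11 line made resistant to SYK inhibition, seeded at 500 per well onto compound-containing plates.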

[3] = Quantitative highthroughput screen to assess conditional lethalithy of NOMO1 cells grown in RPMI1640 with untreated serum (RPMI+s) (AID 1963876); conditions: NOMO1 AML cells in RPMI+serum, CellTiter-Glo viability, 48 h; viability: at 45.8 µM (top of the series); further: nearly all actives have a fitted effect of over 35% in size
How it was run: (§1)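 Each medium arm—HPLM with 10% dialyzed FBS, or RPMI1640 with 5 mM glucose and 10% untreated or dialyzed FBS—was screened against an 11-point, 3-fold compound titration for 48 h at 37 °C, with CellTiter-Glo luminescence as endpoint.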

[4] = Quantitative highthroughput screen to assess conditional lethalithy of NOMO1 cells grown in RPMI1640 with dialyzed fetal bovine serum (RPMI+ds) (AID 1963877); further: nearly all actives have a fitted effect of over 30% in size
How it was run: as §1

[5] = Quantitative highthroughput screen to assess conditional lethalithy of P12 Ichikawa cells grown in Human Plasma-Like Medium with dialyzed fetal bovine serum (HPLM+ds) (AID 1963879); conditions: Potency: viability; further: nearly all actives have a fitted effect of over 35% in size
How it was run: as §1

[6] = Quantitative highthroughput screen to assess conditional lethalithy of P12 Ichikawa cells grown in RPMI1640 with dialyzed fetal bovine serum (RPMI+ds) (AID 1963880); conditions: Potency: P12-Ichikawa viability; further: nearly all actives have a fitted effect of over 35% in size
How it was run: as §1

[7] = Quantitative highthroughput screen to assess conditional lethalithy of SEM cells grown in RPMI1640 with unreated serum (RPMI+s) (AID 1963883); conditions: SEM B-ALL cells, CellTiter-Glo viability, 48 h; viability: at 45.8 µM (top of the series); further: nearly all actives have a fitted effect of over 35% in size
How it was run: as §1

[8] = Cellular viability qHTS for adrenocortical cancer (ACC) cell line SW-13 (AID 1963989); conditions: SW-13 ACC cells viability, CellTiter-Glo, 48 h; activity (max response): stronger effect = lower value; further: nearly all actives have a fitted effect of over 65% in size
How it was run: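 Here, serum-free SW-13 cultures were dosed up to 46 uM. Following 48 h, ATP-dependent luminescence (CellTiter-Glo) reported viable cells, and logistic modeling produced IC50 values.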

[9] = Cellular viability qHTS for adrenocortical cancer (ACC) cell line NCI-H295R (AID 1963990); conditions: CellTiter-Glo ATP luminescence, 48 h; series mostly up to 46.1 µM; further: nearly all actives have a fitted effect of over 60% in size
How it was run: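 Viability of NCI-H295R after 48 h of treatment (final up to 46 uM) measured through cellular ATP luminescence.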

[10] = Quantitative highthroughput screen to assess conditional lethalithy of SEM cells grown in RPMI1640 with dialyzed fetal bovine serum (RPMI+ds) (AID 1963884); conditions: SEM B-ALL cells, RPMI+dialyzed FBS, CellTiter-Glo viability, 48 h; viability: at 45.8 µM (top of the series); further: nearly all actives have a fitted effect of over 35% in size
How it was run: as §1

[11] = Quantitative highthroughput screen to assess conditional lethalithy of P12 Ichikawa cells grown in RPMI1640 with untreated serum (RPMI+s) (AID 1963881); conditions: Potency: viability; further: nearly all actives have a fitted effect of over 35% in size
How it was run: as §1

Measured: Potency
Potency means the concentration at half of the fitted maximal effect; tags describe the fitted curve by direction and shape.

COc1ccc(C2CC(c3ccccc3)=NN2c2ccc(S(N)(=O)=O)cc2)cc1 (stereo unspecified)
active: [1] 20.9 µM | [2] 18.6 µM | [3] 4.18 µM | [4] 4.18 µM | [5] 6.62 µM | [6] 3.72 µM | [7] 1.18 µM
inconclusive: [8] 31.6 µM [cytotoxic, single point] | [9] 35.5 µM [cytotoxic, single point]

CO[C@H]1C(=O)[C@]2(C)[C@@H](OC)C[C@H]3OC[C@@]3(OC(C)=O)[C@H]2[C@H](OC(=O)c2ccccc2)[C@]2(O)C[C@H](OC(=O)[C@H](O)[C@@H](NC(=O)OC(C)(C)C)c3ccccc3)C(C)=C1C2(C)C
active: [3] 0.0132 µM | [4] 0.0132 µM | [7] 0.0042 µM
inconclusive: [1] 0.0019 µM [cytotoxic, full curve] | [2] 0.0015 µM [cytotoxic, full curve] | [5] 0.0053 µM [cytotoxic, full curve] | [6] 0.0132 µM [cytotoxic, full curve] | [10] 0.0132 µM [cytotoxic, full curve] | [8] 0.0158 µM [cytotoxic, full curve, poor fit]

COc1cc(C)c(Sc2cnc(NC(=O)c3ccc(CNC(C)C(C)(C)C)cc3)s2)cc1C(=O)N1CCN(C(C)=O)CC1 (stereo unspecified)
inconclusive: [1] 13 µM [cytotoxic, partial curve] | [2] 20.6 µM [cytotoxic, partial curve] | [3] 33.2 µM [cytotoxic, single point] | [6] 26.4 µM [cytotoxic, single point] | [11] 29.6 µM [cytotoxic, single point] | [8] 14.1 µM [cytotoxic, partial curve]
active: [4] 20.9 µM | [9] 8.91 µM
